# In the supplement of paper PMC8728848:
# The other results are listed elsewhere or left out.
# B1: LcH (Lens culinaris), P02870 (protein)
# chain: TETTSFSITKFSPDQQNLIFQGDGYTGKEGLTLTKVSKETGGRALYSTPIHIWDRDTVNVANFVTNGSQVFRESPNGYNVADGFTFFIAPVDTKPQTGGGYLGVFYNGKEYDKTSQTVAVEFDTFYNAAWDPSNKERHIGIDVNSIKSVNTKSWNLQNGVTSYTLNEVVPLKDVVPEWVRIGFSATTGAEFAAQEVHSWSFNSQLGHTSKS
# Experiments:
# Experiment in all cases: glycan array binding signal (z-score within array); higher = stronger binding
# Settings in all cases: glycan notation: IUPAC condensed, linker removed
# [1] = molecular target: Fuc(a1-2)Gal
# Method in brief: (§1)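 Arrays were curated from the Consortium for Functional Glycomics database, 3228 in total, and kept only where the protein sequence was available. Binding is expressed as a within-array Z-score. This score was averaged across arrays of the same protein sequence at different concentrations or buffers and across linkers, and negative values can be read as non-binding.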
# [2] = molecular target: Fuc(a1-2)Gal(b1-3)GalNAc
# Method in brief: as §1
# [3] = molecular target: Fuc(a1-2)Gal(b1-3)GalNAc(b1-3)Gal
# Method in brief: as §1
# [4] = molecular target: Fuc(a1-2)Gal(b1-3)GalNAc(b1-3)Gal(a1-4)Gal(b1-4)Glc
# Method in brief: as §1
# [5] = molecular target: Fuc(a1-2)Gal(b1-3)GalNAc(b1-4)[Neu5Ac(a2-3)]Gal(b1-4)Glc
# Method in brief: as §1
# [6] = molecular target: Fuc(a1-2)Gal(b1-3)GlcNAc
# Method in brief: as §1
# [7] = molecular target: Fuc(a1-2)Gal(b1-3)GlcNAc(b1-2)Man(a1-3)[Fuc(a1-2)Gal(b1-3)GlcNAc(b1-2)Man(a1-6)]Man(b1-4)GlcNAc(b1-4)GlcNAc
# Method in brief: as §1
# [8] = molecular target: Fuc(a1-2)Gal(b1-3)GlcNAc(b1-3)Gal(b1-4)Glc
# Method in brief: as §1
# [9] = molecular target: Fuc(a1-2)Gal(b1-3)GlcNAc(b1-3)[Gal(b1-4)[Fuc(a1-3)]GlcNAc(b1-6)]Gal(b1-4)Glc
# Method in brief: as §1
# [10] = molecular target: Fuc(a1-2)Gal(b1-3)[Fuc(a1-4)]GlcNAc
# Method in brief: as §1
# [11] = molecular target: Fuc(a1-2)Gal(b1-3)[Fuc(a1-4)]GlcNAc(b1-2)Man(a1-3)[Fuc(a1-2)Gal(b1-3)[Fuc(a1-4)]GlcNAc(b1-2)Man(a1-6)]Man(b1-4)GlcNAc(b1-4)GlcNAc
# Method in brief: as §1
# [12] = molecular target: Fuc(a1-2)Gal(b1-4)Glc
# Method in brief: as §1
# [13] = molecular target: Fuc(a1-2)Gal(b1-4)Glc6S
# Method in brief: as §1
# [14] = molecular target: Fuc(a1-2)Gal(b1-4)GlcNAc
# Method in brief: as §1
# [15] = molecular target: Fuc(a1-2)Gal(b1-4)GlcNAc(b1-2)Man(a1-3)[Fuc(a1-2)Gal(b1-4)GlcNAc(b1-2)Man(a1-6)]Man(b1-4)GlcNAc(b1-4)GlcNAc
# Method in brief: as §1
# [16] = molecular target: Fuc(a1-2)Gal(b1-4)GlcNAc(b1-3)Gal(b1-4)GlcNAc
# Method in brief: as §1
# [17] = molecular target: Fuc(a1-2)Gal(b1-4)GlcNAc(b1-3)Gal(b1-4)GlcNAc(b1-3)Gal(b1-4)GlcNAc
# Method in brief: as §1
# [18] = molecular target: Fuc(a1-2)Gal(b1-4)GlcNAc6S
# Method in brief: as §1
# [19] = molecular target: Fuc(a1-2)Gal(b1-4)[Fuc(a1-3)]GlcNAc
# Method in brief: as §1
# [20] = molecular target: Fuc(a1-2)Gal(b1-4)[Fuc(a1-3)]GlcNAc(b1-2)Man(a1-3)[Fuc(a1-2)Gal(b1-4)[Fuc(a1-3)]GlcNAc(b1-2)Man(a1-6)]Man(b1-4)GlcNAc(b1-4)GlcNAc
# Method in brief: as §1
# [21] = molecular target: Fuc(a1-2)Gal(b1-4)[Fuc(a1-3)]GlcNAc(b1-3)Gal(b1-4)[Fuc(a1-3)]GlcNAc
# Method in brief: as §1
# [22] = molecular target: Fuc(a1-2)Gal(b1-4)[Fuc(a1-3)]GlcNAc(b1-3)Gal(b1-4)[Fuc(a1-3)]GlcNAc(b1-3)Gal(b1-4)[Fuc(a1-3)]GlcNAc
# Method in brief: as §1
# [23] = molecular target: Fuc(a1-2)Gal6S(b1-4)Glc
# Method in brief: as §1
# [24] = molecular target: Fuc(a1-2)Gal6S(b1-4)Glc6S
# Method in brief: as §1
# [25] = molecular target: Fuc(a1-2)Gal6S(b1-4)GlcNAc
# Method in brief: as §1
# [26] = molecular target: Fuc(a1-2)[Gal(a1-3)]Gal
# Method in brief: as §1
# [27] = molecular target: Fuc(a1-2)[Gal(a1-3)]Gal(b1-3)GlcNAc
# Method in brief: as §1
# [28] = molecular target: Fuc(a1-2)[Gal(a1-3)]Gal(b1-3)GlcNAc(b1-2)Man(a1-3)[Fuc(a1-2)[Gal(a1-3)]Gal(b1-3)GlcNAc(b1-2)Man(a1-6)]Man(b1-4)GlcNAc(b1-4)GlcNAc
# Method in brief: as §1
# [29] = molecular target: Fuc(a1-2)[Gal(a1-3)]Gal(b1-4)Glc
# Method in brief: as §1
# [30] = molecular target: Fuc(a1-2)[Gal(a1-3)]Gal(b1-4)GlcNAc
# Method in brief: as §1
# [31] = molecular target: Fuc(a1-2)[Gal(a1-3)]Gal(b1-4)GlcNAc(b1-2)Man(a1-3)[Fuc(a1-2)[Gal(a1-3)]Gal(b1-4)GlcNAc(b1-2)Man(a1-6)]Man(b1-4)GlcNAc(b1-4)GlcNAc
# Method in brief: as §1
# [32] = molecular target: Fuc(a1-2)[Gal(a1-3)]Gal(b1-4)[Fuc(a1-3)]GlcNAc
# Method in brief: as §1
# [33] = molecular target: Fuc(a1-2)[Gal(a1-4)]Gal(b1-4)GlcNAc
# Method in brief: as §1
# [34] = molecular target: Fuc(a1-2)[GalNAc(a1-3)]Gal
# Method in brief: as §1
# [35] = molecular target: Fuc(a1-2)[GalNAc(a1-3)]Gal(b1-3)GlcNAc
# Method in brief: as §1
# [36] = molecular target: Fuc(a1-2)[GalNAc(a1-3)]Gal(b1-3)GlcNAc(b1-2)Man(a1-3)[Fuc(a1-2)[GalNAc(a1-3)]Gal(b1-3)GlcNAc(b1-2)Man(a1-6)]Man(b1-4)GlcNAc(b1-4)GlcNAc
# Method in brief: as §1
# [37] = molecular target: Fuc(a1-2)[GalNAc(a1-3)]Gal(b1-4)Glc
# Method in brief: as §1
# [38] = molecular target: Fuc(a1-2)[GalNAc(a1-3)]Gal(b1-4)GlcNAc
# Method in brief: as §1
# [39] = molecular target: Fuc(a1-2)[GalNAc(a1-3)]Gal(b1-4)GlcNAc(b1-2)Man(a1-3)[GalNAc(a1-3)[Fuc(a1-2)]Gal(b1-4)GlcNAc(b1-2)Man(a1-6)]Man(b1-4)GlcNAc(b1-4)GlcNAc
# Method in brief: as §1
# [40] = molecular target: Fuc(a1-2)[GalNAc(a1-3)]Gal(b1-4)GlcNAc(b1-3)Gal(b1-4)GlcNAc
# Method in brief: as §1
# [41] = molecular target: Fuc(a1-2)[GalNAc(a1-3)]Gal(b1-4)GlcNAc(b1-3)Gal(b1-4)GlcNAc(b1-3)Gal(b1-4)GlcNAc
# Method in brief: as §1
# [42] = molecular target: Fuc(a1-2)[GalNAc(a1-3)]Gal(b1-4)[Fuc(a1-3)]GlcNAc
# Method in brief: as §1
# [43] = molecular target: Fuc(a1-2)[GalNAc(a1-4)]Gal(b1-4)GlcNAc
# Method in brief: as §1
# [44] = molecular target: Fuc(a1-2)[GalNAc(b1-3)]Gal
# Method in brief: as §1
# [45] = molecular target: Fuc(a1-3)GlcNAc
# Method in brief: as §1
# [46] = molecular target: Fuc(a1-3)[Gal(b1-4)]Glc6S
# Method in brief: as §1
# [47] = molecular target: Fuc(a1-3)[Gal(b1-4)]GlcNAc
# Method in brief: as §1
# [48] = molecular target: Fuc(a1-3)[Gal(b1-4)]GlcNAc(b1-2)Man(a1-3)[Fuc(a1-3)[Gal(b1-4)]GlcNAc(b1-2)Man(a1-6)]Man(b1-4)GlcNAc(b1-4)GlcNAc
# Method in brief: as §1
# [49] = molecular target: Fuc(a1-3)[Gal(b1-4)]GlcNAc(b1-2)Man(a1-6)[Gal(b1-4)GlcNAc(b1-2)Man(a1-3)]Man(b1-4)GlcNAc(b1-4)GlcNAc
# Method in brief: as §1
# [50] = molecular target: Fuc(a1-3)[Gal(b1-4)]GlcNAc(b1-3)Gal(b1-3)[Fuc(a1-4)]GlcNAc
# Method in brief: as §1
# [51] = molecular target: Fuc(a1-3)[Gal(b1-4)]GlcNAc(b1-4)Gal(b1-4)[Fuc(a1-3)]GlcNAc
# Method in brief: as §1
# [52] = molecular target: Fuc(a1-3)[Gal(b1-4)]GlcNAc(b1-4)Gal(b1-4)[Fuc(a1-3)]GlcNAc(b1-4)Gal(b1-4)[Fuc(a1-3)]GlcNAc
# Method in brief: as §1
# [53] = molecular target: Fuc(a1-3)[Gal(b1-4)]GlcNAc6S
# Method in brief: as §1
# [54] = molecular target: Fuc(a1-3)[Gal3S(b1-4)]Glc6S
# Method in brief: as §1
# [55] = molecular target: Fuc(a1-3)[Gal3S(b1-4)]GlcNAc
# Method in brief: as §1
# [56] = molecular target: Fuc(a1-3)[Gal3S(b1-4)]GlcNAc6S
# Method in brief: as §1
# [57] = molecular target: Fuc(a1-3)[GalNAc(b1-4)]GlcNAc
# Method in brief: as §1
# [58] = molecular target: Fuc(a1-3)[Neu5Ac(a2-3)]Gal(b1-4)GlcNAc(b1-3)GalNAc
# Method in brief: as §1
# [59] = molecular target: Fuc(a1-4)GlcNAc
# Method in brief: as §1
# [60] = molecular target: Fuc(b1-3)GlcNAc
# Method in brief: as §1
binder,measurement,setting,value
B1,glycan array binding signal (z-score),[1],-0.112
same,glycan array binding signal (z-score),[2],-0.119
same,glycan array binding signal (z-score),[3],-0.056
same,glycan array binding signal (z-score),[4],-0.126
same,glycan array binding signal (z-score),[5],-0.124
same,glycan array binding signal (z-score),[6],-0.101
same,glycan array binding signal (z-score),[7],-0.093
same,glycan array binding signal (z-score),[8],-0.117
same,glycan array binding signal (z-score),[9],-0.124
same,glycan array binding signal (z-score),[10],-0.119
same,glycan array binding signal (z-score),[11],-0.091
same,glycan array binding signal (z-score),[12],-0.111
same,glycan array binding signal (z-score),[13],-0.04
same,glycan array binding signal (z-score),[14],-0.142
same,glycan array binding signal (z-score),[15],-0.109
same,glycan array binding signal (z-score),[16],-0.141
same,glycan array binding signal (z-score),[17],-0.089
same,glycan array binding signal (z-score),[18],-0.104
same,glycan array binding signal (z-score),[19],-0.149
same,glycan array binding signal (z-score),[20],-0.075
same,glycan array binding signal (z-score),[21],-0.122
same,glycan array binding signal (z-score),[22],-0.059
same,glycan array binding signal (z-score),[23],-0.128
same,glycan array binding signal (z-score),[24],-0.104
same,glycan array binding signal (z-score),[25],-0.126
same,glycan array binding signal (z-score),[26],-0.122
same,glycan array binding signal (z-score),[27],-0.136
same,glycan array binding signal (z-score),[28],-0.096
same,glycan array binding signal (z-score),[29],-0.106
same,glycan array binding signal (z-score),[30],-0.099
same,glycan array binding signal (z-score),[31],-0.119
same,glycan array binding signal (z-score),[32],-0.092
same,glycan array binding signal (z-score),[33],-0.121
same,glycan array binding signal (z-score),[34],-0.074
same,glycan array binding signal (z-score),[35],-0.093
same,glycan array binding signal (z-score),[36],-0.117
same,glycan array binding signal (z-score),[37],-0.127
same,glycan array binding signal (z-score),[38],-0.134
same,glycan array binding signal (z-score),[39],-0.102
same,glycan array binding signal (z-score),[40],-0.119
same,glycan array binding signal (z-score),[41],-0.108
same,glycan array binding signal (z-score),[42],-0.093
same,glycan array binding signal (z-score),[43],-0.14
same,glycan array binding signal (z-score),[44],-0.1
same,glycan array binding signal (z-score),[45],-0.116
same,glycan array binding signal (z-score),[46],-0.116
same,glycan array binding signal (z-score),[47],-0.106
same,glycan array binding signal (z-score),[48],-0.099
same,glycan array binding signal (z-score),[49],-0.083
same,glycan array binding signal (z-score),[50],-0.125
same,glycan array binding signal (z-score),[51],-0.084
same,glycan array binding signal (z-score),[52],-0.134
same,glycan array binding signal (z-score),[53],-0.088
same,glycan array binding signal (z-score),[54],-0.119
same,glycan array binding signal (z-score),[55],-0.088
same,glycan array binding signal (z-score),[56],-0.11
same,glycan array binding signal (z-score),[57],-0.128
same,glycan array binding signal (z-score),[58],-0.132
same,glycan array binding signal (z-score),[59],-0.13
same,glycan array binding signal (z-score),[60],-0.135
